Laboratory results as given in paper PMC12136788.
Some of the results follow.

T1: UNK ZnF1-3 (human, UniProt Q9C0B0 31-174)
T1 sequence: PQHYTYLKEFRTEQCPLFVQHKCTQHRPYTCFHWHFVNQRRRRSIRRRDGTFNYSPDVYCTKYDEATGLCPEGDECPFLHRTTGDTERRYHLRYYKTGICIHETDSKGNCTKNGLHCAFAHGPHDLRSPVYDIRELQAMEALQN

B1: 82481400_82484211_767_CDS_ENSMUSG00000028403_ENSMUST00000030110|mouse|control|control (ssRNA)
RNA: GGGAGUUCUACAGUCCGACGAUCCAUCAGUGCGUAGCAAGUAAGCAGCUCAGUGUAGAAACACAACUGCAGAAAGAGCCAAUGGUUGUCUUCACCCACACAAUUGUUUAUCCAAGGACAGUGAUGGUCCAUCCUCCUGACGCACAACAGAGGAUUGAGCAUCA
B2: chr2:217001844:217001845:+_ENSG00000079246_ENST00000392132|hu_hu|hu_hu_hu_mus_False|1_58 (ssRNA)
RNA: GGGAGUUCUACAGUCCGACGAUCACCAACUUGAGGAUUAGAUCUUUUGUCAUAAGCAUAUCGGACGAUGGCGACCAUGUCUAAGUCAUCCAAAGCAUGAACGAGAGAGGAAAGGGCAACAGCUGCCGCCUCAUCAUCUCUUGCCAACAGAGGAUUGAGCAUCA
B3: chr12:48362563:48362564:+_ENSG00000134291_ENST00000256686|hu_hu|hu_hu_hu_mus_False|1_58 (ssRNA)
RNA: GGGAGUUCUACAGUCCGACGAUCUCCGUCAAGCCCUUCGAUAGACCCUUGCGGGGGAAACUGUAAUCACUUUGUAUUUCUAAAAAAAAGAAACGCCAAAAACUUUCCAAAAAGCGGGGGUGGGGUGAGGCGGGAGGUUGGGAACAACAGAGGAUUGAGCAUCA
B4: chr1:43162399:43162400:+_ENSG00000065978_ENST00000321358|hu_hu|FALSE|FALSE (ssRNA)
RNA: GGGAGUUCUACAGUCCGACGAUCAUUCUGGUAAUUUUGCUGGUAAUUGCGUGGAGGACCCCUACGACGUGGAUAGCGUCUAUAAUGGUUACGGUCUGCUGCAUAUUUACUGCCUUGAACUGGAACACCACCAGGACCUGUAACCAACAGAGGAUUGAGCAUCA
B5: chr7:149068622:149068623:-_ENSMUSG00000025139_ENSMUST00000001950|mus_hu|mus_mus_mus_hu_False|8_18 (ssRNA)
RNA: GGGAGUUCUACAGUCCGACGAUCGUGAGGCCUCUGAGUGUGGCUUGUGGUCUGUCCUGGGUUAGAGUUGUUAAUAUCACGGAACAUACCAUCUAGAACGUUCCAGUCCCGCCUGACCAUCCACCCUGCAAGAGGGCAGAAAUCCAACAGAGGAUUGAGCAUCA
B6: chr2:48782664:48782665:-_ENSMUSG00000026761_ENSMUST00000141441|mus_hu|FALSE|FALSE (ssRNA)
RNA: GGGAGUUCUACAGUCCGACGAUCCACUCUUUUUUCUAAGAGUUCCAAAAUAUCCAAUCUACAUGUAAGACCAAUAACUGCUAUUGGGGUCUGUGCAGACUGAGAAAUGUCAAAAAGAUUAUAGAGAAGUGUUUGGUUUUUAUGCAACAGAGGAUUGAGCAUCA

molecular target: T1, UNK ZnF1-3; assay: nsRBNS (natural sequence RNA bind-n-seq); RBNS binding buffer (assumed for nsRBNS): 25 mM Tris pH 7.5, 150 mM KCl, 3 mM MgCl2, 0.01% Triton X-100, 500 ug/ml BSA, 20 U/ml SUPERase-In, 4 C; UNK is unkempt and MSI1 is Musashi-1; names of the RNAs are library labels; protein concentration not given here; high values mean tight binding

| Binder | binding signal |
| --- | --- |
| B1 | 1.29 enrichment R |
| B2 | 1.4 enrichment R |
| B3 | 1.89 enrichment R |
| B4 | 0.828 enrichment R |
| B5 | 0.672 enrichment R |
| B6 | 0.825 enrichment R |
